According to patent publication US20130202594A1 (published 2013):

Biological target: T1, recombinant human BMP10 (human, UniProt O95393 317-424)
T1 sequence (looked up): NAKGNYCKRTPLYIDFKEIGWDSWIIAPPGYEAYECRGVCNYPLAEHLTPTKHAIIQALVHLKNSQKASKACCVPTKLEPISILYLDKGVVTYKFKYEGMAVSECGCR
Experiment: cell-based or functional assay

B1: hALK1-Fc (extracellular domain of human ALK1 fused to a human Fc domain with a minimal linker) (Fc fusion)
chain: not shown
notes: also called human ALK1-Fc fusion protein; hALK-Fc
firefly luciferase reporter (Smad1/5/8-responsive) relative to Renilla in T98G cells transfected with full-length ALK1; hALK1-Fc 65 ng/ml with BMP10 1 ng/ml: > 80 % reduction
